Measured values as given in PubChem BioAssay AID1768 (National Center for Advancing Translational Sciences (NCATS), 2009).
The campaign covered roughly 270,000 compounds. About 620 (0.23%) were called active. This list was built around the results that the source calls inconclusive (neither active nor inactive); the mix of calls is not that of the screen. The call rests on the fitted dose curve; in most records, active means well fitted inhibition curve with a large enough effect in the polarisation, with a control signal flat (not every such curve was filed as active); inconclusive means small, poorly fitted or top-dose-only effect, or effect the other way, or a change in a side signal; inactive means no such curve, though single readings can be large or run the other way; the % refers to the polarisation. Potencies beside an inconclusive call are fits to weak or partial responses and may not hold up. “Side channel” marks fits to a control or component signal instead of the main read-out.

Target: Menin (Homo sapiens) (UniProt O00255)
Test: qHTS Assay for Inhibitors Targeting the Menin-MLL Interaction in MLL Related Leukemias: Competition With Texas Red Labeled MLL-derived Mutant Peptide; on FP activity change, negative = inhibition: % of control where 0% means no effect
Conditions: fluorescence polarization; FP activity change, negative = inhibition: at 61.6 µM (top of the series)
Potency means the concentration at half of the fitted maximal effect; tags describe the fitted curve by direction and shape or compound fluorescence and quenching.

Sequence of UniProt O00255 (O00255 whole entry, looked up): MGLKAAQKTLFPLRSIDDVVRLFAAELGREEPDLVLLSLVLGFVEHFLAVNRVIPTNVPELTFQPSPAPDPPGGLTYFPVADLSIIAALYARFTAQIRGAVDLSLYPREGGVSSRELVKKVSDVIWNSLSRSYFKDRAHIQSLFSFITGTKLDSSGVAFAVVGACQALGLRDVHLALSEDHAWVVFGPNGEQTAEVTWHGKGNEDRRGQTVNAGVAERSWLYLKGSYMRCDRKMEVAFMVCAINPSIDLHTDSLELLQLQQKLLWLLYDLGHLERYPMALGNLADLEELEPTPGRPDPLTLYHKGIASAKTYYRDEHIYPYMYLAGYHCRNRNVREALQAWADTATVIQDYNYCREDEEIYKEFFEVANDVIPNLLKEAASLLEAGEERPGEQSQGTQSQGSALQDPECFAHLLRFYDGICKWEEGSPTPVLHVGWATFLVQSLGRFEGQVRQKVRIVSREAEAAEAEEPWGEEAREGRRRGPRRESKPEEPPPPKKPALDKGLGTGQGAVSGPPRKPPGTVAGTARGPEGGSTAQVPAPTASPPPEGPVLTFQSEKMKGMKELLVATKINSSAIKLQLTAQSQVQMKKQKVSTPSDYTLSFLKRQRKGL

Compound | Potency | FP activity change, negative = inhibition
O=C1NC(=O)/C(=C/c2cccc(O)c2)N1 | inconclusive: 10 µM [quencher, side channel, partial curve] | 
Cc1cc(C(=O)Nc2ccccc2C(=O)O)ccc1NC(=O)COc1cccc([N+](=O)[O-])c1 | inconclusive: 15.8 µM [quencher, side channel, partial curve] | 
CC1C(=O)C(C)C(c2cc(Cl)ccc2O)NC1c1cc(Cl)ccc1O (stereo unspecified) | inconclusive: 2.51 µM [quencher, side channel, partial curve] | 
OCC1(Cc2ccc(Cl)cc2)CCN(CCCc2ccccc2)CC1 | inconclusive: 10 µM [fluorescent, side channel, partial curve] | 
Nc1ccc(C(=O)N/N=C/c2cn(Cc3ccc(F)cc3)c3ccccc23)cc1 | inconclusive: 11.2 µM [quencher, side channel, partial curve] | 
COc1ccc(Cl)cc1NS(=O)(=O)c1ccc(S(=O)(=O)N2CCCC2)cc1 | inconclusive: 31.6 µM [quencher, side channel, single point] | 
CCCCNC(=O)c1ccc2nc(-c3ccco3)c(-c3ccco3)nc2c1 | inconclusive: 25.1 µM [quencher, side channel, partial curve] | 
CCCN(CCC)CCNC(=O)c1cc2c(-c3ccc(Cl)cc3)nn(C)c2s1 | inconclusive: 22.4 µM [fluorescent, side channel, partial curve] | 
CCOc1ccc(-c2n[nH]c(C)c2Oc2ccccc2OC)c(O)c1 | inconclusive: 7.94 µM [quencher, side channel, partial curve] | 
CC1(C)Cc2c(C#N)c(N3CCN(C(=O)c4ccccc4Cl)CC3)nc(-c3ccco3)c2CS1 | inconclusive: 25.1 µM [quencher, side channel, partial curve] | 
O=[N+]([O-])c1ccc(S(=O)(=O)Nc2nnc(C3CCCCC3)s2)cc1 | inconclusive: 28.2 µM [quencher, side channel, single point] | 
CCCOc1ccc(C2Nc3cccc4cccc(c34)N2)cc1 | inconclusive: 14.1 µM [quencher, side channel, partial curve] | 
Cc1ccc(Nc2nc(N)c([N+](=O)[O-])c(NCc3ccco3)n2)cc1C | inconclusive: 31.6 µM [quencher, side channel, single point] | 
O=Cc1ccccc1C=O |  | inactive: 30.7%
Cc1ccc(CNC(=O)CS(=O)(=O)Cc2nc(-c3ccccc3F)oc2C)cc1 | inconclusive: 35.5 µM [fluorescent, side channel, single point] | 
Oc1ccc(N2CCN(C(=S)NCc3ccccc3)CC2)cc1 | inconclusive: 39.8 µM [quencher, single point] | 
Nc1ccc2nc(SCC(=O)Nc3ccc(N4CCOCC4)c(Cl)c3)sc2c1 | inconclusive: 20 µM [quencher, side channel, partial curve] | 
C=CCN(CC=C)C(=S)Nc1ccc2nsnc2c1 | inconclusive: 28.2 µM [quencher, side channel, partial curve] | 
CCN1CCSc2ccc(C(=O)Nc3ccc(NC(C)=O)cc3)cc21 | inconclusive: 25.1 µM [quencher, side channel, single point] | 

Compound | Potency | FP activity change, negative = inhibition
COc1ccc(-c2nn(-c3ccccc3)cc2/C=N/NC(=O)c2cccc(S(=O)(=O)Nc3ccccc3OC)c2)cc1 | inconclusive: 3.16 µM [inhibitor, full curve] | 
CC(=O)Nc1cccc(-c2nc3ccc(NC(C)=O)cc3[nH]2)c1 | inconclusive: 39.8 µM [inhibitor, single point] | 
Cc1[nH]n(-c2ccccc2)c(=O)c1N=Nc1ccccc1 | inconclusive: 7.94 µM [quencher, side channel, partial curve] | 
Cc1ccccc1OCC(=O)Nc1ccccc1-c1ccccc1NC(=O)COc1ccccc1C | inconclusive: 17.8 µM [fluorescent, side channel, partial curve] | 
N#C/C(=C\c1cccc(Br)c1)C(=O)N1CCCCC1 | inconclusive: 14.1 µM [fluorescent, side channel, partial curve] | 
COc1ccc(-c2cc(-c3cc(F)ccc3O)[nH]n2)cc1OC | inconclusive: 20 µM [quencher, partial curve] | 
O=c1[nH]c(=O)n(Cc2ccco2)c2c1C(C(F)(F)F)(C(F)(F)F)N=C(CCc1ccccc1)N2 | inconclusive: 4.47 µM [inhibitor, single point] | 
COc1ccc(Nc2nc3cc(C)ccc3cc2C#N)c(OC)c1 | inconclusive: 11.2 µM [quencher, side channel, partial curve] | 
Cc1ccccc1-c1ncc(CN2CCC(CO)(CCCc3ccccc3)CC2)cn1 | inconclusive: 39.8 µM [fluorescent, side channel, single point] | 
Cc1cccc(NC(NC(=O)c2ccccc2[N+](=O)[O-])C(Cl)(Cl)Cl)c1 (stereo unspecified) | inconclusive: 35.5 µM [quencher, side channel, single point] | 
Cc1c([N+](=O)[O-])cc(C(=O)Oc2ccc(Br)cc2C(=S)N2CCCCC2)cc1[N+](=O)[O-] | inconclusive: 12.6 µM [quencher, side channel, partial curve] | 
O=C(NC1CCCCC1)NC1CC2CCCC(C1)N2C1CCCC1 (stereo unspecified) | inconclusive: 7.08 µM [inhibitor, partial curve] | 
COc1cc(/C=C/C(=O)OCC(=O)Nc2cccc(Oc3ccccc3)c2)ccc1O | inconclusive: 25.1 µM [quencher, side channel, partial curve] | 
COc1cc(-c2nnc(COC(=O)c3cc(C)nc4ccc(C)cc34)o2)cc(OC)c1OC | inconclusive: 15.8 µM [fluorescent, side channel, partial curve] | 
O=C1N/C(=N/N=C/c2ccco2)SC1Cc1ccccc1 (stereo unspecified) | inconclusive: 10 µM [inhibitor, partial curve] | 
O=C(Nc1ccccn1)Nc1ccccc1Cl | inconclusive: 39.8 µM [inhibitor, single point] | 
C=CCC(Nc1ccc(OC)cc1)(C(=O)OCC)c1ccccc1 (stereo unspecified) |  | inactive: 9.89%
COc1ccc2[nH]c(=O)c(CN(c3ccccc3OC)S(=O)(=O)c3ccccc3)cc2c1 | inconclusive: 3.55 µM [inhibitor, single point] | 
Cc1ccccc1C(=O)Nc1ccc(C(=O)NNC(=O)CCCOc2ccc(Cl)cc2Cl)cc1 | inconclusive: 8.91 µM [quencher, side channel, single point] | 

Compound | Potency | FP activity change, negative = inhibition
CC(CCC(=O)O)C1CCC2C3C(=O)C[C@@H]4CC(=O)CC[C@@]4(C)C3CC(=O)[C@]12C (stereo partly specified) |  | inactive: -0.465%
Cc1ccnc(NCc2c(O)ccc3ccccc23)c1 | inconclusive: 28.2 µM [quencher, side channel, single point] | 
O=C1CCC=C1C(O)c1ccc2c(c1)OCO2 (stereo unspecified) |  | inactive: 3.83%
N/C(=N\N=C\c1ccnc2ccccc12)SC1CC(=O)N(c2ccc(Br)cc2)C1=O (stereo unspecified) | inconclusive: 14.1 µM [quencher, side channel, partial curve] | 
O=C(CCc1nc2ccccc2[nH]1)Nc1ccc2c(c1)OCO2 |  | inactive: 24.9%
COc1cccc(C(=O)Nc2ccc(S(=O)(=O)Nc3cc(C)nc(C)n3)cc2)c1 | inconclusive: 39.8 µM [inhibitor, single point] | 
Cc1ccc(-n2[nH]c(C)c(C=Nc3ccc(S(=O)(=O)Nc4nccs4)cc3)c2=O)cc1C | inconclusive: 14.1 µM [quencher, partial curve] | 
COCc1nnc(NC(=O)CSc2ccc(C)cc2)s1 | inconclusive: 12.6 µM [inhibitor, partial curve] | 
CC1=C(CCC(=O)O)c2cc3nc(cc4[nH]c(cc5[nH]c(cc1n2)c(C)c5C(C)O)c(C)c4C(C)O)C(C)=C3CCC(=O)O (stereo unspecified) | inconclusive: 28.2 µM [fluorescent, side channel, partial curve] | 
Cc1ccc(NC(=S)Nc2cccc3ccccc23)cc1 |  | inactive: 14.6%
Cc1cccc(OCCCC(=O)Nc2ccc(S(=O)(=O)Nc3onc(C)c3C)cc2)c1C | inconclusive: 11.2 µM [quencher, side channel, partial curve] | 
CN(c1ccccc1)S(=O)(=O)c1ccc(C(=O)Nc2nnc(-c3ccc(F)cc3)o2)cc1 | inconclusive: 25.1 µM [quencher, partial curve] | 
O=c1[nH]c2ccccc2nc1-c1c[nH]c2ccccc12 | inconclusive: 14.1 µM [quencher, partial curve] | 
COc1cccc(-c2nnc(Nc3nc4c(F)cccc4s3)o2)c1 | inconclusive: 15.8 µM [quencher, side channel, partial curve] | 
COc1cc(C)c(NC(c2ccccc2)c2ccccc2)cc1OC | inconclusive: 12.6 µM [inhibitor, partial curve] | 
COc1cccc(-c2nnc(NC(=O)c3ccc(S(=O)(=O)N(CC(C)C)CC(C)C)cc3)o2)c1 | inconclusive: 28.2 µM [quencher, side channel, single point] | 
NS(=O)(=O)c1ccc(NC(=S)NC(=O)c2ccc3c(c2)OCO3)cc1 | inconclusive: 39.8 µM [inhibitor, single point] | 
O=C(CSc1nc2ccc([N+](=O)[O-])cc2[nH]1)c1ccc2ccccc2c1 | inconclusive: 25.1 µM [quencher, side channel, partial curve] | 
